The values that follow are results of earlier work, collected in publication PMC8058401, “Identification and Characterization of Zika Virus NS5 Methyltransferase Inhibitors” (Frontiers in Cellular and Infection Microbiology, 2021).

One series concerns the target NS5 MTase of WNV and YFV. Particulars: in vitro; ref Brecher et al., 2015; cited from earlier work.
In a further series the test system is WNV, DENV-2 and JEV. The note with it: cell-based assays; ref Brecher et al., 2015; read-out: EC50, antiviral efficacy toward WNV, DENV-2 and JEV; cited from earlier work.

Structures are written as SMILES.

For `Cc1cc(N)c2cc(NC(=O)Nc3ccc4nc(C)cc(N)c4c3)ccc2n1` [NSC 12155], the IC50 on NS5 MTase of WNV and YFV is 0.5 to 3 µM. Besides, the EC50 in the series with WNV, DENV-2 and JEV was 1 to 7 µM.
